In the supplement of paper PMC10369915:
The list shows a part of the results. Cut-off read from the data, not from the text of the source: active = 3.2 or more and inactive = the rest. The signal is at background level for most entries.

Assays:
Assay in all cases: enrichment score (SH2-bound / input frequency) (ratio); bacterial display of known human phosphotyrosine sites (pTyr-Var adds point mutants) read by sequencing; higher = stronger binding; tyrosines were phosphorylated by kinases first
Conditions in all cases: peptide library: pTyr-Var
SHP2 C-SH2 domain E139D = molecular target: SHP2 C-SH2 domain E139D
[1] = molecular target: SHP2 C-SH2 domain wild-type
SHP2 N-SH2 domain L43F = molecular target: SHP2 N-SH2 domain L43F
SHP2 N-SH2 domain T42A = molecular target: SHP2 N-SH2 domain T42A
SHP2 N-SH2 domain T52S = molecular target: SHP2 N-SH2 domain T52S
[2] = molecular target: SHP2 N-SH2 domain wild-type

Measured: enrichment score
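Note: displayed peptides selected on beads carrying the immobilized SH2 domain, with library peptides lacking any tyrosine serving as negative controls.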

B1: BMPR1A_Y457 (peptide)
chain: EYQLPYYNMVP
inactive: SHP2 C-SH2 domain E139D 3.09 | [1] 2.53 | SHP2 N-SH2 domain L43F 2.83 | SHP2 N-SH2 domain T42A 2.95 | SHP2 N-SH2 domain T52S 2.76 | [2] 2.46

B2: BMPR1A_Y457_M460T_YF (peptide)
chain: EFQLPYFNTVP
inactive: SHP2 C-SH2 domain E139D 0.918 | [1] 0.757 | SHP2 N-SH2 domain L43F 0.881 | SHP2 N-SH2 domain T42A 0.617 | SHP2 N-SH2 domain T52S 0.885 | [2] 0.822

B3: BMPR1A_Y458_M460T (peptide)
chain: YQLPYYNTVPS
inactive: SHP2 C-SH2 domain E139D 1.46 | [1] 1.43 | SHP2 N-SH2 domain L43F 1.75 | SHP2 N-SH2 domain T42A 2.37 | SHP2 N-SH2 domain T52S 1.6 | [2] 1.19

B4: BMPR1A_Y458_M460T_YF (peptide)
chain: FQLPFYNTVPS
inactive: SHP2 C-SH2 domain E139D 1.6 | [1] 1.58 | SHP2 N-SH2 domain L43F 1.47 | SHP2 N-SH2 domain T42A 1.79 | SHP2 N-SH2 domain T52S 1.76 | [2] 1.5

B5: BMPR2_Y247 (peptide)
chain: NEKNIYRVPLM
inactive: SHP2 C-SH2 domain E139D 0.852 | [1] 0.785 | SHP2 N-SH2 domain L43F 0.812 | SHP2 N-SH2 domain T42A 0.737 | SHP2 N-SH2 domain T52S 0.794 | [2] 0.991

B6: BMPR2_Y979_R974P (peptide)
chain: PVKTPYSLKRW
inactive: SHP2 C-SH2 domain E139D 1.59 | [1] 1.86 | SHP2 N-SH2 domain L43F 2.05 | SHP2 N-SH2 domain T42A 1.64 | SHP2 N-SH2 domain T52S 1.56 | [2] 1.85

B7: BMS1_Y651 (peptide)
chain: KEEEDYKEENN
inactive: SHP2 C-SH2 domain E139D 0.395 | [1] 0.281 | SHP2 N-SH2 domain L43F 0.412 | SHP2 N-SH2 domain T42A 0.427 | SHP2 N-SH2 domain T52S 0.328 | [2] 0.36

B8: BMS1_Y651_K652R (peptide)
chain: KEEEDYREENN
inactive: SHP2 C-SH2 domain E139D 0.416 | [1] 0.523 | SHP2 N-SH2 domain L43F 0.367 | SHP2 N-SH2 domain T42A 0.468 | SHP2 N-SH2 domain T52S 0.609 | [2] 1.11

B9: BOD1_Y82_A81V (peptide)
chain: DTKPVYQNLRQ
active: SHP2 N-SH2 domain T52S 3.33
inactive: SHP2 C-SH2 domain E139D 3.16 | [1] 2.48 | SHP2 N-SH2 domain L43F 2.87 | SHP2 N-SH2 domain T42A 3.12 | [2] 2.37

B10: BPGM_Y92 (peptide)
chain: LNERHYGALIG
inactive: SHP2 C-SH2 domain E139D 0.848 | [1] 0.84 | SHP2 N-SH2 domain L43F 0.928 | SHP2 N-SH2 domain T42A 0.713 | SHP2 N-SH2 domain T52S 0.651 | [2] 0.77

B11: BPGM_Y92_R90C (peptide)
chain: LNECHYGALIG
inactive: SHP2 C-SH2 domain E139D 0.916 | [1] 1.05 | SHP2 N-SH2 domain L43F 1.05 | SHP2 N-SH2 domain T42A 0.772 | SHP2 N-SH2 domain T52S 0.889 | [2] 1.1

B12: BPIFB2_Y36_K31M (peptide)
chain: MAALSYVSEIG
inactive: SHP2 C-SH2 domain E139D 1.17 | [1] 1.07 | SHP2 N-SH2 domain L43F 1.13 | SHP2 N-SH2 domain T42A 1.16 | SHP2 N-SH2 domain T52S 1.09 | [2] 1.04

B13: BRCA2_Y2621 (peptide)
chain: SRIWVYNHYRW
inactive: [1] 2.95 | SHP2 N-SH2 domain L43F 2.85 | SHP2 N-SH2 domain T42A 2.53 | [2] 2.64
active: SHP2 C-SH2 domain E139D 3.48 | SHP2 N-SH2 domain T52S 3.31

B14: BRCA2_Y2621_W2626C_YF (peptide)
chain: SRIWVYNHFRC
inactive: SHP2 C-SH2 domain E139D 1.36 | [1] 1.08 | SHP2 N-SH2 domain L43F 1.17 | SHP2 N-SH2 domain T42A 1.21 | SHP2 N-SH2 domain T52S 1.31 | [2] 1.37

B15: BRCA2_Y2624_I2627F_YF (peptide)
chain: WVFNHYRWFIW
inactive: SHP2 C-SH2 domain E139D 2.66 | [1] 3.06 | SHP2 N-SH2 domain L43F 2.42 | SHP2 N-SH2 domain T42A 2.03 | SHP2 N-SH2 domain T52S 2.48 | [2] 2.59

B16: BRCA2_Y3009 (peptide)
chain: KRYRIYHLATS
inactive: SHP2 C-SH2 domain E139D 0.522 | [1] 0.456 | SHP2 N-SH2 domain L43F 0.558 | SHP2 N-SH2 domain T42A 0.352 | SHP2 N-SH2 domain T52S 0.776 | [2] 0.547

B17: BRCA2_Y3009_T3013I (peptide)
chain: KRYRIYHLAIS
inactive: SHP2 C-SH2 domain E139D 2.17 | [1] 1.93 | SHP2 N-SH2 domain L43F 2.03 | SHP2 N-SH2 domain T42A 1.91 | SHP2 N-SH2 domain T52S 2.2 | [2] 1.84

B18: BRCA2_Y57 (peptide)
chain: HKNNNYEPNLF
inactive: SHP2 C-SH2 domain E139D 0.499 | [1] 0.774 | SHP2 N-SH2 domain L43F 0.586 | SHP2 N-SH2 domain T42A 0.544 | SHP2 N-SH2 domain T52S 0.747 | [2] 0.49

B19: BRCA2_Y57_K53R (peptide)
chain: HRNNNYEPNLF
inactive: SHP2 C-SH2 domain E139D 0.681 | [1] 0.652 | SHP2 N-SH2 domain L43F 0.939 | SHP2 N-SH2 domain T42A 0.915 | SHP2 N-SH2 domain T52S 0.922 | [2] 0.962

B20: BRCA2_Y71 (peptide)
chain: QRKPSYNQLAS
inactive: SHP2 C-SH2 domain E139D 0.917 | [1] 0.926 | SHP2 N-SH2 domain L43F 1.03 | SHP2 N-SH2 domain T42A 1.12 | SHP2 N-SH2 domain T52S 1.23 | [2] 0.954

B21: BRCA2_Y71_A75P (peptide)
chain: QRKPSYNQLPS
inactive: SHP2 C-SH2 domain E139D 0.845 | [1] 0.722 | SHP2 N-SH2 domain L43F 0.743 | SHP2 N-SH2 domain T42A 0.622 | SHP2 N-SH2 domain T52S 0.653 | [2] 0.86

B22: BRD1_Y33 (peptide)
chain: RETLTYAQAQR
inactive: SHP2 C-SH2 domain E139D 0.65 | [1] 0.483 | SHP2 N-SH2 domain L43F 0.568 | SHP2 N-SH2 domain T42A 0.447 | SHP2 N-SH2 domain T52S 0.456 | [2] 0.857

B23: BRD2_Y715 (peptide)
chain: KPRKPYTIKKP
active: SHP2 C-SH2 domain E139D 4.53 | [1] 3.61 | SHP2 N-SH2 domain L43F 4.2 | SHP2 N-SH2 domain T42A 3.42 | SHP2 N-SH2 domain T52S 3.98 | [2] 3.88

B24: BRDT_Y291 (peptide)
chain: KKHFSYAWPFY
active: SHP2 C-SH2 domain E139D 5.29 | [1] 4.18 | SHP2 N-SH2 domain L43F 4.37 | SHP2 N-SH2 domain T42A 4.26 | SHP2 N-SH2 domain T52S 4.04 | [2] 4.23

B25: BRDT_Y291_YF (peptide)
chain: KKHFSYAWPFF
active: SHP2 C-SH2 domain E139D 4.91 | [1] 3.79 | SHP2 N-SH2 domain L43F 5.01 | SHP2 N-SH2 domain T42A 4.44 | SHP2 N-SH2 domain T52S 5.58 | [2] 4.07

B26: BRDT_Y331 (peptide)
chain: MDNQEYKDAYK
inactive: SHP2 C-SH2 domain E139D 0.488 | [1] 0.532 | SHP2 N-SH2 domain L43F 0.576 | SHP2 N-SH2 domain T42A 0.428 | SHP2 N-SH2 domain T52S 0.484 | [2] 0.742

B27: BRDT_Y331_K336T (peptide)
chain: MDNQEYKDAYT
inactive: SHP2 C-SH2 domain E139D 0.421 | [1] 0.452 | SHP2 N-SH2 domain L43F 0.476 | SHP2 N-SH2 domain T42A 0.418 | SHP2 N-SH2 domain T52S 0.329 | [2] 0.571

B28: BRDT_Y331_YF (peptide)
chain: MDNQEYKDAFK
inactive: SHP2 C-SH2 domain E139D 0.581 | [1] 0.799 | SHP2 N-SH2 domain L43F 0.628 | SHP2 N-SH2 domain T42A 0.62 | SHP2 N-SH2 domain T52S 0.713 | [2] 0.69

B29: BRDT_Y335 (peptide)
chain: EYKDAYKFAAD
inactive: SHP2 C-SH2 domain E139D 0.861 | [1] 0.893 | SHP2 N-SH2 domain L43F 0.842 | SHP2 N-SH2 domain T42A 0.83 | SHP2 N-SH2 domain T52S 0.494 | [2] 1.25

B30: BRDT_Y335_K336T (peptide)
chain: EYKDAYTFAAD
inactive: SHP2 C-SH2 domain E139D 0.745 | [1] 0.552 | SHP2 N-SH2 domain L43F 0.577 | SHP2 N-SH2 domain T42A 0.64 | SHP2 N-SH2 domain T52S 0.615 | [2] 0.725

B31: BRIP1_Y921 (peptide)
chain: YSTSPYLLEAA
inactive: SHP2 C-SH2 domain E139D 0.802 | [1] 0.723 | SHP2 N-SH2 domain L43F 0.648 | SHP2 N-SH2 domain T42A 0.684 | SHP2 N-SH2 domain T52S 0.62 | [2] 0.711

B32: BRIP1_Y921_S919P (peptide)
chain: YSTPPYLLEAA
inactive: SHP2 C-SH2 domain E139D 1.63 | [1] 0.891 | SHP2 N-SH2 domain L43F 0.789 | SHP2 N-SH2 domain T42A 0.931 | SHP2 N-SH2 domain T52S 0.896 | [2] 0.937

B33: BRIP1_Y921_YF (peptide)
chain: FSTSPYLLEAA
inactive: SHP2 C-SH2 domain E139D 1.19 | [1] 1.08 | SHP2 N-SH2 domain L43F 1.21 | SHP2 N-SH2 domain T42A 1.22 | SHP2 N-SH2 domain T52S 1.33 | [2] 1.11

B34: BSCL2_Y213 (peptide)
chain: QLYGAYLRIHA
inactive: SHP2 C-SH2 domain E139D 2.49 | [1] 2.65 | SHP2 N-SH2 domain L43F 2.57 | SHP2 N-SH2 domain T42A 2.46 | SHP2 N-SH2 domain T52S 2.77 | [2] 2.65

B35: BST2_Y6_T4I_YF (peptide)
chain: MASISYDFCRV
inactive: SHP2 C-SH2 domain E139D 0.872 | [1] 1.16 | SHP2 N-SH2 domain L43F 0.978 | SHP2 N-SH2 domain T42A 1.01 | SHP2 N-SH2 domain T52S 0.827 | [2] 1.09

B36: BST2_Y8_T4I_YF (peptide)
chain: SISFDYCRVPM
inactive: SHP2 C-SH2 domain E139D 0.813 | [1] 0.91 | SHP2 N-SH2 domain L43F 0.815 | SHP2 N-SH2 domain T42A 0.864 | SHP2 N-SH2 domain T52S 0.935 | [2] 1.09

B37: BST2_Y8_YF (peptide)
chain: STSFDYCRVPM
inactive: SHP2 C-SH2 domain E139D 0.816 | [1] 0.721 | SHP2 N-SH2 domain L43F 0.715 | SHP2 N-SH2 domain T42A 0.52 | SHP2 N-SH2 domain T52S 0.552 | [2] 0.879
